Source: ChEMBL document CHEMBL4888484, “Replenishing the malaria drug discovery pipeline: Screening and hit evaluation of the MMV Hit Generation Library 1 (HGL1) against asexual blood stage Plasmodium falciparum ,using a nano luciferase reporter read-out” (2022)
The whole screen tested about 150,000 compounds, of which about 540 (0.36%) showed an effect of 50% or more. Some of the results follow.

Each compound was assayed on Plasmodium falciparum (assay: Primary screen in NF54 nanoGlo assay, in single point, at 2uM, 72h; a lower Z score goes with more inhibition). Conditions: timepoint 72 hour.
Assay type: functional, Erythrocyte
With `Cc1cccc(NC(=O)C(=O)c2ccc3c(c2)CCC3)c1` the “% Inhibition” value was -4% and the Z score was 0.58.
In the case of `N#CCc1ccc(OCc2ccccc2NC(=O)NC2CCCCC2C#N)cc1` (stereo unspecified), the “% Inhibition” value is reported as -1% and the Z score is reported as 0.18.
For `O=C(c1cnc[nH]1)N1CC[C@@]2(CCCN(CCC3CCCCC3)C2)C1`, the “% Inhibition” value was -6% and the Z score was 0.78.
With `O=C(NCC(F)F)[C@H]1CCCN(C2CCN(C3Cc4ccccc4C3)CC2)C1` the “% Inhibition” value was -12% and the Z score was 1.47.
For `CCCc1nc(N2CCCN(C(=O)Nc3ccc(C)c(Cl)c3)CC2)c2c(C)nn(-c3ccccc3)c2n1`, the “% Inhibition” value was 4% and the Z score was -0.72.
With `O=C(NC(c1ccccc1)c1ccccc1)c1csc(CN(Cc2ccc(F)cc2)Cc2ccc(Cl)cc2)n1` the “% Inhibition” value was -18% and the Z score was 1.79.
`CC(C)(C)c1cc(C(=O)Nc2nnc(-c3ccoc3)[nH]2)[nH]n1` was tested, and the “% Inhibition” value was 5% and the Z score was -0.64.
With `O=C(NCC(F)F)c1ccc(Cl)cn1` the “% Inhibition” value was -3% and the Z score was 0.51.
With `O=C(Nc1nn(-c2cccc(F)c2)c2cccc(N3CCOC3=O)c12)C1CCC1` the “% Inhibition” value was 0% and the Z score was 0.01.
`CC(C)[C@H]1CN(C(=O)CCCn2cncn2)C[C@@H]1NS(=O)(=O)N(C)C` was tested, and the “% Inhibition” value was -3% and the Z score was 0.48.
In the case of `Cc1nc(CCNC(=O)C2CC2c2ccncc2)cs1` (stereo unspecified), the “% Inhibition” value is reported as -2% and the Z score is reported as 0.23.
For `O=C(c1ccc(O)cc1)N1CCN(Cc2ccccn2)[C@@H]2CS(=O)(=O)C[C@@H]21`, the “% Inhibition” value was 3% and the Z score was -0.42.
`Cc1ccc(C(=O)N2CCC[C@H]2c2nnc3ccccn23)cc1F` was tested, and the “% Inhibition” value was 5% and the Z score was -0.66.
`CC(C)c1ccn(C2(C(=O)O)CCN(Cc3cccc(C#N)c3)CC2)n1` was tested, and the “% Inhibition” value was -6% and the Z score was 1.17.
With `CCOC(=O)c1cc(-c2ccc(N3CCN(C(=O)c4ccc5c(c4)OCCN5C)CC3)cc2)n(-c2ccc(F)cc2)n1` the “% Inhibition” value was 2% and the Z score was -0.26.
`COc1ccc(Cl)cc1NC(=O)Cn1cnc2c(C(N)=O)nsc2c1=O` was tested, and the “% Inhibition” value was -8% and the Z score was 1.02.
With `Cc1n[nH]c(C)c1NC(=O)Nc1ccc2c(c1)C(=O)CCC2` the “% Inhibition” value was -7% and the Z score was 0.66.
In the case of `CN(C)CC[C@H]1CN(C/C=C/c2ccc(F)cc2)CCO1`, the “% Inhibition” value is reported as 15% and the Z score is reported as -1.97.
With `C[C@@H]1CN(C(=O)NCCc2ccccc2F)C[C@]1(C)O` the “% Inhibition” value was -11% and the Z score was 1.74.
`C[C@H](NS(=O)(=O)Cc1ccc(Cl)c(F)c1)c1nccs1` was tested, and the “% Inhibition” value was -11% and the Z score was 1.54.
With `O=C(O)[C@H]1CCCC[C@H]1C(=O)NCc1ccccc1` the “% Inhibition” value was -9% and the Z score was 1.22.
For `O=C(Nc1cc(Oc2ccc(F)cc2)cc(Oc2ccc(F)cc2)c1)c1cc2nc(-c3cccs3)cc(C(F)(F)F)n2n1`, the “% Inhibition” value was -12% and the Z score was 1.9.
In the case of `Cc1ccc(S(=O)(=O)NCC2(c3ccsc3)CCCC2)s1`, the “% Inhibition” value is reported as 2% and the Z score is reported as -0.36.
`O=C(c1cc2ccccc2o1)N1CC(c2nc(-c3cnccn3)no2)C1` was tested, and the “% Inhibition” value was -5% and the Z score was 0.86.
With `CCc1ccnc(C(=O)Nc2nnn(C)c2C(F)F)c1` the “% Inhibition” value was -12% and the Z score was 1.29.
With `CC(C)Oc1ccccc1NC(=O)NC1C2CCOC2C1(C)C` (stereo unspecified) the “% Inhibition” value was 5% and the Z score was -0.73.
In the case of `Cc1cc(OCC(=O)c2ccc3c(c2)N(CC(=O)N2CCCC[C@@H]2C)C(=O)CO3)ccc1Cl`, the “% Inhibition” value is reported as -2% and the Z score is reported as 0.24.
For `Cc1nc(-c2ccc(N3CCN(C(=O)[C@@H]4CCC(=O)N4)CC3)nc2)no1`, the “% Inhibition” value was 1% and the Z score was -0.07.
For `Cc1cc2c(cc1C)O[C@H](C(=O)Nc1nnn[nH]1)C2`, the “% Inhibition” value was 40% and the Z score was -5.1.
`O[C@H]1[C@H](NC2CCC2)[C@H]2CO[C@H](O2)[C@@H]1n1cnc2ccccc21` was tested, and the “% Inhibition” value was 14% and the Z score was -1.64.
In the case of `Cc1ccc(C)c(-c2[nH]c([C@@H]3CC=CCC3)nc2-c2ccccc2)c1`, the “% Inhibition” value is reported as 1% and the Z score is reported as -0.11.
In the case of `CC(C)(C)NC(=O)COC(=O)c1ccc(F)c(Cl)c1`, the “% Inhibition” value is reported as 30% and the Z score is reported as -3.4.
For `Cc1cc(CN2CC[C@H](c3nc(C)no3)C2)on1`, the “% Inhibition” value was -15% and the Z score was 2.11.
With `CCOc1cc(CNc2ccc(C(=O)NCCC(N)=O)cc2)c2c(c1)C[C@H](C)O2` the “% Inhibition” value was -14% and the Z score was 1.89.
With `CCCc1cnc(C)nc1N1CCC2(CCC(=O)N(CCc3c[nH]cn3)C2)CC1` the “% Inhibition” value was -23% and the Z score was 3.
With `Cn1ccnc1C(=O)N1CCC[C@@](F)(c2nc(-c3cccnc3)no2)C1` the “% Inhibition” value was -10% and the Z score was 1.32.
For `CCOC(=O)C(NC(=O)CCC1CCC1)C(O)c1cccnc1` (stereo unspecified), the “% Inhibition” value was -12% and the Z score was 1.76.
`COCCC1(C(=O)Nc2nnn(Cc3ccccc3F)c2C)CCC1` was tested, and the “% Inhibition” value was 7% and the Z score was -0.8.
With `CC(C)c1cc(N(C)[C@H]2CCO[C@@H]2c2cccnc2)nc(N(C)C)n1` the “% Inhibition” value was -6% and the Z score was 1.14.
`CCn1cc(NC(=O)CCN2CCN(c3ccccc3)CC2)cn1` was tested, and the “% Inhibition” value was -14% and the Z score was 1.46.
In the case of `Cn1nccc1C(=O)NC[C@H]1CCCN(c2ccncc2)C1`, the “% Inhibition” value is reported as 14% and the Z score is reported as -2.14.
With `O=C(NCc1cccnc1N1CCCCCCC1)c1ncoc1C1CC1` the “% Inhibition” value was 10% and the Z score was -0.95.
`O=C(NCC1(CO)CC1)C1(c2cccs2)CCCCC1` was tested, and the “% Inhibition” value was 10% and the Z score was -1.88.
For `CN(C)c1ccc(C(=O)N2CCOc3ccccc3[C@@H]2CO)cc1`, the “% Inhibition” value was -4% and the Z score was 0.7.
In the case of `Cc1nn(C)c2nc(-c3ccccn3)nc(N3CCC[C@H](CO)C3)c12`, the “% Inhibition” value is reported as 2% and the Z score is reported as -0.25.
`CC(C)c1cc(C(=O)N2CCN(C(C)C)CC2)nc2ccnn12` was tested, and the “% Inhibition” value was -6% and the Z score was 0.97.
For `CCn1c(C)nnc1COc1ccc(S(=O)(=O)N2CCCC2)cc1`, the “% Inhibition” value was 5% and the Z score was -0.65.
`NC(=O)[C@@H]1CCCCN1C(=O)c1ccnc2c1CC(=O)N2` was tested, and the “% Inhibition” value was -13% and the Z score was 1.66.
`Cn1cnnc1-c1cncc(NCc2ccc(OC(F)F)cc2)c1` was tested, and the “% Inhibition” value was -11% and the Z score was 1.77.
For `COc1cnc(N2CCC3(CC2)CC(=O)N(Cc2cccc(OC)c2)C3)nc1`, the “% Inhibition” value was 2% and the Z score was -0.34.
For `CCOC(=O)c1cnc(NC(=O)c2ccc(S(C)(=O)=O)cc2)[nH]1`, the “% Inhibition” value was -6% and the Z score was 0.76.
In the case of `Cc1[nH]c(=O)c(C#N)c(C)c1CCC(=O)N(C)CC1CCCCC1`, the “% Inhibition” value is reported as 26% and the Z score is reported as -3.49.
In the case of `O=C(Nc1cccc(-c2ccsc2)c1)NC1CC2CCC1O2` (stereo unspecified), the “% Inhibition” value is reported as 7% and the Z score is reported as -0.93.
In the case of `O=C(NCCCOCC1CC1)N1CCN(C2CC2)CC1`, the “% Inhibition” value is reported as 24% and the Z score is reported as -2.66.
With `O=C(c1ccc(F)cc1Cl)N1CC[C@H](c2ccsc2)C1` the “% Inhibition” value was -7% and the Z score was 1.32.
`COc1ccc(C(c2c[nH]c3ccccc23)c2c[nH]c3ccccc23)c2ccccc12` was tested, and the “% Inhibition” value was -13% and the Z score was 2.42.
With `O=C1[C@@H]2CN(CCn3ccnc3)CCN2C(=O)N1c1ccccc1` the “% Inhibition” value was -18% and the Z score was 1.61.
For `COc1ncc(Br)cc1CNC(=O)NC[C@H]1CCN1C1CC1`, the “% Inhibition” value was 2% and the Z score was -0.37.
In the case of `COc1ccc(S(=O)(=O)Oc2ccccc2CN(CC2CC2)C(C)=O)cc1`, the “% Inhibition” value is reported as -9% and the Z score is reported as 0.91.
With `CC1CN(C(=O)CS(=O)(=O)Cc2nnc(C3CCC3)n2C)CC(C)O1` (stereo unspecified) the “% Inhibition” value was -9% and the Z score was 1.32.
`O=C(NCC1(c2ccccc2)CC1)C1=NN(c2ccccc2)C(=O)CN1` was tested, and the “% Inhibition” value was 12% and the Z score was -1.89.
In the case of `COc1ccc([C@@H](NC(=O)N(C)Cc2cccnc2)C(F)F)cc1F`, the “% Inhibition” value is reported as -11% and the Z score is reported as 1.34.
With `COc1cccc(CNc2nccc(N(C)C)n2)c1OC` the “% Inhibition” value was -8% and the Z score was 1.19.
With `CC(=O)N1CCC(N[C@H]2CCCc3c2cnn3-c2ccc(C)c(C)c2)CC1` the “% Inhibition” value was -12% and the Z score was 1.64.
`COc1cc(C(=O)NC2CC3CCC(C2)S3(=O)=O)ccn1` (stereo unspecified) was tested, and the “% Inhibition” value was -7% and the Z score was 0.91.
`Cc1ccc2nc(-c3ccc(N4C(=O)C[C@H](N5CCN(CCOCCO)CC5)C4=O)cc3)sc2c1` was tested, and the “% Inhibition” value was -12% and the Z score was 2.23.
For `O=C(N[C@H]1CCOC12CCOCC2)c1ccnc2cc(Cl)ccc12`, the “% Inhibition” value was -1% and the Z score was 0.11.
For `O=C(NCc1ccc2c(c1)OCO2)[C@H]1CCCN(c2nc3cccnc3s2)C1`, the “% Inhibition” value was -14% and the Z score was 1.23.
`O=C(CCN1CCCCO1)N1CCC[C@H](Nc2ccc3c(c2)OCCO3)C1` was tested, and the “% Inhibition” value was -5% and the Z score was 0.92.
`C=CCNC(=O)COc1cccc(C(C)C)c1` was tested, and the “% Inhibition” value was 5% and the Z score was -0.65.
In the case of `O[C@H]1CC[C@H](Nc2ncc(Cl)cn2)CC1`, the “% Inhibition” value is reported as 2% and the Z score is reported as -0.21.
In the case of `c1nc(CCNc2nncc(-c3ccc(C4CCCCC4)cc3)n2)cs1`, the “% Inhibition” value is reported as -3% and the Z score is reported as 0.39.
With `CC(C)(C)N1CCN(C[C@H]2CCCN(S(C)(=O)=O)C2)c2ccccc21` the “% Inhibition” value was -8% and the Z score was 1.15.
In the case of `Cc1nn(-c2ncccn2)c2c1[C@@H](c1ccccc1)CC(=O)N2`, the “% Inhibition” value is reported as 41% and the Z score is reported as -4.6.
`O=C(Nc1nc(CCc2c[nH]c3ccccc23)n[nH]1)c1cccnc1` was tested, and the “% Inhibition” value was 36% and the Z score was -1.09.
For `Cc1cc(C)n(-c2ccc(N3CCC(NCc4ccoc4)CC3)cc2)n1`, the “% Inhibition” value was -18% and the Z score was 1.59.
With `Nc1nnnn1CC(=O)NCCCc1ccccc1` the “% Inhibition” value was 2% and the Z score was -0.47.
With `O=C1CC[C@H](C(=O)N2CCCO2)CN1CCc1ccccc1` the “% Inhibition” value was -5% and the Z score was 0.69.
For `COC(=O)N[C@@H](C)C(=O)NCCn1nc(C(F)(F)F)cc1C`, the “% Inhibition” value was -19% and the Z score was 2.4.
`c1cncc(Cc2nnc3n2CCN(c2nccc(C4CCCC4)n2)CC3)c1` was tested, and the “% Inhibition” value was 3% and the Z score was -0.51.
`C[C@@H](c1cccc(-c2nccn2-c2ccc(S(N)(=O)=O)cc2)c1)N(C)C` was tested, and the “% Inhibition” value was -15% and the Z score was 2.91.
With `CC(CCc1ccccc1)NC(=O)NC1CC(=O)N(c2ccccc2)C1` (stereo unspecified) the “% Inhibition” value was 15% and the Z score was -1.96.
In the case of `Cc1ccc(-n2cccc2CC(=O)NCCN2CCCCC2)cc1`, the “% Inhibition” value is reported as 0% and the Z score is reported as 0.04.
